{
  "source": "patent US10072299B2",
  "about": "“Antibodies against epidermal growth factor receptor (EGFR) and uses thereof” (Merrimack Pharmaceuticals, Inc., priority 2011, dated 2018)",
  "test_system": "phospho-ERK",
  "experiment": "phospho-ERK ELISA in A431 cells",
  "assay_type": "cell-based, human",
  "conditions": "80 nM of EGF ligand",
  "data": [
    {"molecule": "P2X: affinity matured anti-EGFR monoclonal antibody (Bin2) of parental cd; VH SEQ ID NO: 21, VL SEQ ID NO: 22 (antibody, V domains shown) VH: MGFGLSWLFLVAILKGVQCQVQLVQSGAEVKKPGSSVKVSCKASGGTFGSYAISWVRQAPGQGLEWMGSIIPIFGAANPAQKSQGRVTITADESTSTAYMELSSLRSEDTAVYYCAKMGRGKVAFDIWGQGTMVTVSS VL: MGTPAQLLFLLLLWLPDTTGDIVMTQSPDSLAVSLGERATINCKSSQSVLYSPNNKNYLAWYQQKPGQPPKLLIYWASTRESGVPDRFSGSGSGTDFTLTISSLQAEDVAVYYCQQYYGSPITFGGGTKVEIK", "values": [
      {"measurement": "phospho-ERK inhibition with 80 nM EGF (in words)", "value": "no inhibition"}
    ]}
  ]
}
